Reference: the supplement of paper PMC8728848
The other results are listed elsewhere or left out.

Tests used:
Assay in all cases: glycan array binding signal (z-score within array); higher = stronger binding
Details in all cases: glycan notation: IUPAC condensed, linker removed
Gal(b1-4)Glc = biological target: Gal(b1-4)Glc
Method in brief: (§1)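 The binding signal is a Z-score computed within each array and averaged over linkers. Arrays of the same protein sequence at different concentrations or buffers were also averaged together. Data originate from 3228 arrays in the Consortium for Functional Glycomics database, kept only where the protein sequence was available.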

Gal(b1-4)Glc6S = biological target: Gal(b1-4)Glc6S
Method in brief: as §1

Gal(b1-4)GlcNAc = biological target: Gal(b1-4)GlcNAc
Method in brief: as §1

[1] = biological target: Gal(b1-4)GlcNAc(a1-6)Gal(b1-4)GlcNAc
Method in brief: as §1

Gal(b1-4)GlcNAc(b1-2)Man = biological target: Gal(b1-4)GlcNAc(b1-2)Man
Method in brief: as §1

[2] = biological target: Gal(b1-4)GlcNAc(b1-2)Man(a1-3)Man(b1-4)GlcNAc(b1-4)GlcNAc
Method in brief: as §1

[3] = biological target: Gal(b1-4)GlcNAc(b1-2)Man(a1-3)[Gal(b1-4)GlcNAc(b1-2)Man(a1-6)]Man(b1-4)GlcNAc(b1-4)GlcNAc
Method in brief: as §1

[4] = biological target: Gal(b1-4)GlcNAc(b1-2)Man(a1-3)[Gal(b1-4)GlcNAc(b1-2)Man(a1-6)]Man(b1-4)GlcNAc(b1-4)[Fuc(a1-6)]GlcNAc
Method in brief: as §1

[5] = biological target: Gal(b1-4)GlcNAc(b1-2)Man(a1-3)[Gal(b1-4)GlcNAc(b1-2)Man(a1-6)][Gal(b1-4)GlcNAc(b1-4)]Man(b1-4)GlcNAc(b1-4)[Fuc(a1-6)]GlcNAc
Method in brief: as §1

[6] = biological target: Gal(b1-4)GlcNAc(b1-2)Man(a1-3)[Gal(b1-4)GlcNAc(b1-2)Man(a1-6)][GlcNAc(b1-4)]Man(b1-4)GlcNAc(b1-4)[Fuc(a1-6)]GlcNAc
Method in brief: as §1

[7] = biological target: Gal(b1-4)GlcNAc(b1-2)Man(a1-3)[GlcNAc(b1-2)Man(a1-6)]Man(b1-4)GlcNAc(b1-4)GlcNAc
Method in brief: as §1

[8] = biological target: Gal(b1-4)GlcNAc(b1-2)Man(a1-3)[GlcNAc(b1-4)][Gal(b1-4)GlcNAc(b1-2)Man(a1-6)]Man(b1-4)GlcNAc(b1-4)GlcNAc
Method in brief: as §1

[9] = biological target: Gal(b1-4)GlcNAc(b1-2)Man(a1-3)[Man(a1-6)]Man(b1-4)GlcNAc(b1-4)GlcNAc
Method in brief: as §1

[10] = biological target: Gal(b1-4)GlcNAc(b1-2)Man(a1-6)Man(b1-4)GlcNAc(b1-4)GlcNAc
Method in brief: as §1

[11] = biological target: Gal(b1-4)GlcNAc(b1-2)Man(a1-6)[GlcNAc(b1-2)Man(a1-3)]Man(b1-4)GlcNAc(b1-4)GlcNAc
Method in brief: as §1

[12] = biological target: Gal(b1-4)GlcNAc(b1-2)Man(a1-6)[Man(a1-3)]Man(b1-4)GlcNAc(b1-4)GlcNAc
Method in brief: as §1

[13] = biological target: Gal(b1-4)GlcNAc(b1-2)[Gal(b1-4)GlcNAc(b1-4)]Man(a1-3)[Gal(b1-4)GlcNAc(b1-2)Man(a1-6)]Man(b1-4)GlcNAc(b1-4)GlcNAc
Method in brief: as §1

[14] = biological target: Gal(b1-4)GlcNAc(b1-2)[Gal(b1-4)GlcNAc(b1-4)]Man(a1-3)[Gal(b1-4)GlcNAc(b1-2)[Gal(b1-4)GlcNAc(b1-6)]Man(a1-6)]Man(b1-4)GlcNAc(b1-4)GlcNAc
Method in brief: as §1

[15] = biological target: Gal(b1-4)GlcNAc(b1-2)[Gal(b1-4)GlcNAc(b1-4)]Man(a1-3)[GlcNAc(b1-4)][Gal(b1-4)GlcNAc(b1-2)Man(a1-6)]Man(b1-4)GlcNAc(b1-4)GlcNAc
Method in brief: as §1

[16] = biological target: Gal(b1-4)GlcNAc(b1-2)[Gal(b1-4)GlcNAc(b1-4)]Man(a1-3)[GlcNAc(b1-4)][Gal(b1-4)GlcNAc(b1-2)[Gal(b1-4)GlcNAc(b1-6)]Man(a1-6)]Man(b1-4)GlcNAc(b1-4)GlcNAc
Method in brief: as §1

[17] = biological target: Gal(b1-4)GlcNAc(b1-2)[Gal(b1-4)GlcNAc(b1-6)]Man(a1-6)[Gal(b1-4)GlcNAc(b1-2)Man(a1-3)]Man(b1-4)GlcNAc(b1-4)GlcNAc
Method in brief: as §1

[18] = biological target: Gal(b1-4)GlcNAc(b1-2)[Gal(b1-4)GlcNAc(b1-6)]Man(a1-6)[Gal(b1-4)GlcNAc(b1-2)Man(a1-3)]Man(b1-4)GlcNAc(b1-4)[Fuc(a1-6)]GlcNAc
Method in brief: as §1

B1: Pwp5 ND (Candida glabrata) (protein)
chain: MGSSHHHHHHSSGLVPRGSHMASANPVPLTNVCYFPEEYPRQAGFRAITAGLASTILQGSVDELLNYSGLSSLTTQQTTTTTPNFQLPTLPLPTNVYGLTVVPLYLLVQLQGYFVPPVSGQYTFSLENTNDAAIIFFGNPSAFPCGDLSAWPQASADDITVTDGTFPSRTLFLKAGVAYPMRISYYNSLGSGNLAVSFTDPGGTKRTNWNGYIWRYNSCSTCTYT
glycan array binding signal (z-score) (Gal(b1-4)Glc): -0.548
glycan array binding signal (z-score) (Gal(b1-4)Glc6S): 0.845
glycan array binding signal (z-score) (Gal(b1-4)GlcNAc): -0.067
glycan array binding signal (z-score) [1]: -0.689
glycan array binding signal (z-score) (Gal(b1-4)GlcNAc(b1-2)Man): 0.183
glycan array binding signal (z-score) [2]: 0.309
glycan array binding signal (z-score) [3]: -0.247
glycan array binding signal (z-score) [4]: -0.336
glycan array binding signal (z-score) [5]: -0.557
glycan array binding signal (z-score) [6]: -0.486
glycan array binding signal (z-score) [7]: -0.27
glycan array binding signal (z-score) [8]: -0.512
glycan array binding signal (z-score) [9]: 0.117
glycan array binding signal (z-score) [10]: 0.775
glycan array binding signal (z-score) [11]: -0.5
glycan array binding signal (z-score) [12]: 0.111
glycan array binding signal (z-score) [13]: -0.291
glycan array binding signal (z-score) [14]: -0.544
glycan array binding signal (z-score) [15]: -0.511
glycan array binding signal (z-score) [16]: -0.587
glycan array binding signal (z-score) [17]: -0.375
glycan array binding signal (z-score) [18]: -0.233
